# Source: the antibiotic and cytotoxicity screens of Wong et al. (2023)
# The list shows a part of the results.
# What was measured:
# HSkMC = human skeletal muscle cells; experiment: cytotoxicity call (relative viability < 0.9); conditions: 10 µM
# HepG2 = experiment: cytotoxicity call (relative viability < 0.9); conditions: 10 µM
# S. aureus RN4220 = experiment: growth inhibition call (relative growth <= 0.2); conditions: 50 µM
Structure (SMILES),cytotoxicity call (HSkMC),cytotoxicity call (HepG2),growth inhibition call (S. aureus RN4220)
COc1ccc(NC(=O)N(C)C[C@H]2Oc3c(NC(=O)Nc4cccc5ccccc45)cccc3C(=O)N([C@H](C)CO)C[C@H]2C)cc1,inactive,inactive,inactive
C[C@@H]1CN([C@@H](C)CO)C(=O)c2cc(C#Cc3ccccc3F)cnc2O[C@H]1CN(C)C(=O)c1ccc2c(c1)OCO2,inactive,inactive,inactive
C[C@@H]1CN([C@H](C)CO)C(=O)c2cc(NC(=O)Cn3cnnn3)ccc2O[C@@H]1CN(C)Cc1ccc2c(c1)OCO2,inactive,inactive,inactive
Nc1ncnc2c1ncn2CCO,inactive,inactive,inactive
C[C@@H]1CN([C@@H](C)CO)S(=O)(=O)c2ccc(Br)cc2O[C@H]1CN(C)Cc1ccc(-c2ccccc2)cc1,inactive,inactive,inactive
Cc1noc(C)c1NC(=O)Nc1ccc2c(c1)C(=O)N([C@H](C)CO)C[C@@H](C)[C@@H](CN(C)Cc1ccc(C(=O)O)cc1)OCCCC[C@H](C)O2,inactive,inactive,inactive
C[C@@H]1CN([C@@H](C)CO)C(=O)c2cc(NC(=O)c3ccccc3)ccc2O[C@@H](C)CCCCO[C@@H]1CN(C)C(=O)Nc1ccc(C(F)(F)F)cc1,inactive,active,inactive
C[C@H]1CN([C@@H](C)CO)C(=O)CCCn2cc(nn2)CO[C@@H]1CN(C)C(=O)Nc1ccc(N2CCCCC2)cc1,inactive,inactive,inactive
O=c1c(-c2ccc(O)cc2)coc2c([C@@H]3O[C@H](CO)[C@@H](O)[C@H](O)[C@H]3O)c(O)ccc12,inactive,inactive,inactive
C[C@@H]1CN([C@@H](C)CO)C(=O)c2cc(NC(=O)c3ccccc3)ccc2O[C@@H](C)CCCCO[C@H]1CN(C)C(=O)Nc1cccc2ccccc12,inactive,active,inactive
